Experimental data published in the supplement of paper PMC3334620.
The full ranking holds about 33,000 sequences; the median of “E-score (-0.5 to 0.5)” is about -0.036, and the highest 2% start at about 0.37. This is one part of the list.

molecular target: T1, Yer064c (UniProt P40041); assay: PBM E-score (8-mer binding enrichment) (E-score (-0.5 to 0.5)); higher = stronger / more preferred TF binding; most listed sequences are background and not binding sites; details: protein concentration: 200 nM; construct: GST-full length
T1 sequence: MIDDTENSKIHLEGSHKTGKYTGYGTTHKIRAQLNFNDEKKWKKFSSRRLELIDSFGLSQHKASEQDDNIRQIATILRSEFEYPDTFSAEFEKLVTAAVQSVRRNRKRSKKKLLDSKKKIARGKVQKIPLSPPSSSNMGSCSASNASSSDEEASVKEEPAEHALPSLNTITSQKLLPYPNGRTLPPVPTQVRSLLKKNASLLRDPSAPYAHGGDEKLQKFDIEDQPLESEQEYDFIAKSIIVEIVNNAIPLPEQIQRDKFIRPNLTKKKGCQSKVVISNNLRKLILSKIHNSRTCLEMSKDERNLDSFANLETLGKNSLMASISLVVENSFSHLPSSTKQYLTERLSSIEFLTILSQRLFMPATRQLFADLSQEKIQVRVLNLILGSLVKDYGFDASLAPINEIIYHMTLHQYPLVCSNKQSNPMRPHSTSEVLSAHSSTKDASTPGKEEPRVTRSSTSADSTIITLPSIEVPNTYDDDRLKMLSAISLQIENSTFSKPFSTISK
Outline: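 Masliner-normalised scans of fluorescent anti-GST signal were the basis for scoring. That signal came from GST-tagged yeast transcription factors applied at about 100-200 nM to double-stranded universal all-10-mer Agilent arrays on fresh or once-stripped slides. Each ungapped eight-base word, pooled with its reverse complement, received an E-score from the Universal PBM Analysis Suite.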

Sequence	PBM E-score
GCAAGGAA	-0.13
AGGCTTAG	-0.211
ACTACCAT	0.261
ACTAGGGA	-0.0656
AGATGGGC	-0.0771
TAGTAATA	0.193
AAGCTTAT	-0.163
CCATTCGG	0.00253
AAGAGACT	0.264
AACAACAC	-0.00491
AGATATCT	0.0912
CTCGGTAA	-0.0279
CATCAATA	0.00965
CGAAACCA	-0.00384
ACCGATAT	-0.109
AACATTAC	0.0977
ACAAACGC	-0.195
CAATAGGA	-0.157
CGAACCCG	-0.197
ACGCCGAA	0.0741
ACACCAAT	-0.0406
CCTCCGGC	-0.209
ACCAGGAT	-0.00897
TCCTGACA	-0.0281
CTATATGA	0.256

Sequence	PBM E-score
CCTCTACG	-0.0992
GCAGATCA	-0.0804
AATTACAC	-0.115
ATCGTATA	0.0263
CAAGTGCA	-0.0407
AAACCAAC	-0.0381
ATTATAGG	0.0127
ATGGCGGC	-0.0869
ACTGACCA	-0.0902
CAATAAGG	-0.179
GCAATTAC	-0.0747
TAATCAAA	0.315
AAACCTAT	-0.218
AGGCAACA	-0.231
TCGCACAA	0.169
AGGCGGAA	0.0617
GGGCGGTA	-0.3
ATGTAGGC	-0.332
ATACATTG	-0.0381
GCGGACTA	0.294
CGAATTAG	-0.0039
GGGTATAC	0.00654
CACCTTCG	0.101
TCGCTGAA	0.113
CGCACCAC	-0.221

Sequence	PBM E-score
CTACTTCA	0.0506
AACGTGCG	-0.197
ATAAGTGG	0.143
ATTCAGGC	-0.0938
CCAACCCA	-0.136
ACGACCAT	-0.106
CCACGGTC	-0.184
GGCGCTAC	-0.135
AAAGGCGA	-0.021
CGGATCGA	-0.00898
ACACGGTG	-0.12
GTGCATCA	-0.12
AGAGCGTC	-0.104
GGCAGCTA	-0.07
AGGTCAAT	0.0938
CTATATAA	0.0598
CAGCCAAC	-0.0849
CGGACCCA	-0.176
AGCGGTAT	-0.117
AATATTCT	-0.159
CAGAACTG	0.139
AAGGCAGG	-0.192
AACGTGAG	0.0223
GGTTGAGA	0.0673
ACTGTACA	-0.0719

Sequence	PBM E-score
TAAAAAAA	0.167
AGCGTGTC	-0.0309
CGCCGACA	-0.219
CACGCCGC	-0.108
TATCTGGA	0.0749
ACTTCTAC	0.109
ACGGCTTG	-0.248
CGGTGTGC	-0.282
ATTCCTAG	0.158
AATACTGT	0.0486
AACCTGAT	0.201
CACCGGCG	-0.0504
GGCAGAGA	-0.0617
CCAGCTTA	-0.159
AATATAAG	0.248
TGACGCAA	-0.158
AACTGCAT	0.104
CAATCCTC	0.131
AATATGCT	-0.0838
ACGAATCA	0.404
CGGCCATC	-0.166
TAATGTGA	0.19
ATGGAGCC	-0.274
AGTGGGGG	-0.282
AGAAGTTG	-0.171

Sequence	PBM E-score
GTAGTTCA	0.0332
CAAGGCAC	-0.144
CTGTGGAC	0.0799
CCCCGGGC	-0.0338
GTACCTGA	0.134
TATAAGCA	-0.132
AAGCACTG	0.0399
AACTCCTA	-0.137
AGATATTG	-0.159
GAGGACTC	0.387
CCGTTTGC	-0.119
AGACGCAG	-0.0905
CTTACCGC	-0.144
CGTGAGGA	-0.121
ACTCAACA	0.314
GGACCGCA	-0.128
CTACCAAC	0.0172
AGTTACCC	0.127
GACGCTGC	-0.393
GCCAATGA	0.101
ACTAAAGA	0.108
CAGTTTTA	-0.0515
ACCCTAGA	-0.0589
CCAGGTAG	-0.139
CAGTCCAC	0.00637

Sequence	PBM E-score
CTTCAAAG	0.132
ATCAGGAT	0.0777
CAATTCGA	-0.0384
GCTTATCC	-0.223
ATGTACAG	-0.0601
CGACGTAG	-0.281
ATCCGGAT	-0.186
AGAGATGC	-0.33
ATGTCCAG	-0.233
AGAATTTC	-0.219
ATCCGGTA	0.0415
ACAACCCT	-0.107
ATTTGAAA	0.0462
GGATCGAC	-0.0538
ACCGTACG	-0.256
CCAAAGGA	-0.0837
ACATCAAA	0.0746
AGAAGTCA	0.43
AGGCGCGC	-0.364
CTCCTGCA	-0.16
ATACTGTC	-0.0124
ATGTTTAA	0.298
AGAGAACG	-0.168
GAGTCTAA	0.308
ACAAAGGG	-0.0593

Sequence	PBM E-score
CGGCTACG	-0.191
CGACAGAA	-0.0611
CGTGTTAA	5e-05
GGCACACA	0.0236
CATCCGAG	0.0429
CGTGCCAC	-0.204
GCTTTCAA	0.0808
ACAGGCTC	-0.151
ATTGCTAG	-0.117
GGAGCTCA	0.0928
GGGGTAAC	-0.0702
CGGTTCAA	0.1
AGCGTGGA	-0.217
ATCACAAA	0.15
GCCAGGGA	-0.121
CTCAGAAC	0.151
AGTCCTTA	0.304
CCGTTAAA	-0.0687
CACAGCCG	-0.0959
AACATCGA	0.00221
CAAATCGA	0.0397
ATACGTTC	-0.216
ACTCTATC	0.0568
GGTGCTTA	-0.1
CCGCAATA	-0.00287

Sequence	PBM E-score
CAACAAAG	-0.0491
GACGCCGC	-0.207
ACCCGGCA	-0.261
GATACGAA	0.0942
ACAGTACG	-0.00134
ATGCGCAT	-0.0468
ATCGGGCG	-0.206
AATAGTAC	6e-05
CGATGAGC	0.176
CGTACGAG	0.0282
CGTTTGAA	0.106
CTATGAAG	-0.158
AAGGTGGC	-0.237
GCGTGAAC	-0.0629
AGTAAAAA	0.0178
GCTCTGTA	-0.218
ATCTCCTC	-0.0714
CTACGCTC	-0.0886
AGTAGGGA	-0.081
ACGGGGGG	-0.208
AATGAACC	0.0108
ACCACCGT	0.0173
AATATTCC	0.112
CCGAATGA	0.111
CGGCGCAC	-0.361

Sequence	PBM E-score
AGCCTCAC	-0.151
CCGTCGAG	-0.0272
GCGCCCCC	-0.387
ATTTTGCG	0.00719
AAATAATT	0.023
AAGGGTTA	-0.112
AAGCACTA	0.0174
TATTGGCA	0.0198
CACTAGGA	-0.035
GCTCCTTA	0.029
AACTACGA	0.0144
TCGCCCCA	0.0165
GGAGCGCC	-0.2
CCTCCGAC	-0.0902
CCACTACC	-0.222
CCCGAGCC	-0.161
CTAACACA	0.253
ATGTTAGA	0.031
CTATTATA	0.0728
AACAGGAA	-0.16
CATCTGTC	-0.216
CCCAAATC	0.1
CCAGTCCA	-0.145
ATCACTCG	0.154
CCAGGATC	-0.0208

Sequence	PBM E-score
CCTAAAGG	-0.201
GTTTTAGA	0.16
AGCTGCAG	-0.103
AGACTGCA	0.201
AGCAGGTC	-0.237
AGTAAACG	-0.0215
CAAATCAC	0.152
AGATGCCT	-0.048
CGATGAAA	0.0671
CATATGGG	-0.0539
GCCTCCGC	-0.334
CCTCGGAC	-0.143
ACTCGACG	0.0733
GCGCCAAA	-0.188
GTCGCACA	0.0618
GCCGTCCC	-0.159
CCGATTAA	0.0747
CGTAACCC	-0.119
AATACTTC	0.00573
CATTGTCC	-0.0933
ACATCGTC	0.0853
ACCTCTAC	-0.188
GGACCCCA	-0.11
CGGTGCAG	-0.0907
CAACTTTC	-0.27

Sequence	PBM E-score
GAGAGGTA	-0.182
GTTAACAA	0.0813
CTCTTTGC	-0.0733
AACAGTTC	-0.0607
CTCGACCC	-0.0167
TATCTGAA	-0.045
AAGACGGA	0.0413
AATTTCGA	-0.0618
ATAGGAGC	-0.112
GAAGAGAA	-0.0781
CTAGACAC	0.107
GTAGATTA	0.142
TGCAGGAA	0.0166
AAAAACCG	-0.2
ATAGGCTA	-0.102
CCTAATTC	0.0319
CACCTCCA	-0.03
CACGTGCG	-0.219
TAACAACA	-0.113
ATTAGCCG	-0.106
CTTGTTGC	0.138
ACCATAGC	0.0386
AAAAATTC	-0.247
ACACGTTA	0.0113
AAAAGCAC	-0.059

Sequence	PBM E-score
CATGGGTA	0.209
ATAATCAG	0.33
CGTATGAC	0.315
GTCTGGTA	0.0342
GAGGACCC	-0.199
GGCTCGAA	-0.139
TCTACCCA	0.102
GATGAAGC	-0.151
AAGCCTGC	-0.242
CCGCTGTC	-0.226
CACGTAAG	-0.109
AAATACTA	0.0115
AAATTTGC	-0.0833
TATACCGA	0.0725
CCAGCAAA	0.0166
ATTGACAA	0.0616
CAATAGGG	-0.0435
ATAGCTGG	-0.145
AGGGGCGG	-0.302
ACCTAGCG	-0.0927
AAACCCAC	-0.0498
ACATTGTC	0.0147
CGAGTCCC	0.24
GTTTAAGA	0.245
ACAATTGA	0.042

Sequence	PBM E-score
ACGCAGAA	0.0383
ACCGCAGC	-0.157
AGTTTGAA	0.132
CTCTCAGC	-0.146
CCCGCTCG	-0.301
CCACGGGC	-0.0954
ATACCAGG	-0.0197
AGATTAAC	0.255
ATAGTACG	-0.0109
CAATGATC	0.122
ATTGGACA	-0.0986
CATCGATG	0.0682
AAGCCAAG	-0.0616
GGGCTACC	-0.191
CTGCGACA	-0.0895
CACACGGA	-0.0651
CACTAATA	0.134
AGACACCT	-0.0938
AGCATGCA	-0.0829
AGCTCTAA	-0.0169
CTCAAGAG	0.0167
ATATTGTA	0.0555
CCTTACCG	-0.202
ATGTAGAC	0.144
TAGGATGA	0.254

Sequence	PBM E-score
GTATTGTA	-0.0603
ATAGTTAG	0.155
CGGTGGAC	-0.0773
CCTCCTCC	-0.0433
GATGTGAC	0.256
CACTCGAG	0.0565
GATCGATC	-0.0475
GACATGGA	0.0166
CCTGGAGA	0.0904
CAACTACA	-0.0401
CCCTGGGA	-0.337
ATGTACCA	-0.194
GCCAGCCA	-0.133
AGCAGCCA	-0.0376
TAATGTAA	0.124
AGAAACCC	-0.0774
CCCTGAAG	-0.234
GACTTGAA	0.145
CTCTCCTC	-0.234
